Data from PubChem BioAssay AID588591 (National Center for Advancing Translational Sciences (NCATS), 2011).
Where “and” joins values, the source holds several entries; their conditions need not be identical. Equal values may be shown once. Screen size: about 390,000 compounds; about 4,700 (1.2%) were called active. This list was built around the results that the source calls inconclusive (neither active nor inactive); the mix of calls is not that of the screen. Calls follow the shape of the dose curve; as a rule, active = well fitted inhibition curve with a large enough effect; inconclusive = small, poorly fitted or top-dose-only effect, or another doubt; inactive = no such curve, though single readings can be large or run the other way. Where the call is inconclusive, the potency comes from a doubtful curve fit.
% is scaled to controls: 0 for no effect and ±100 for the full control effect; potency is read from the fitted curve at half-maximal effect; tags tell the direction and shape of the fitted curve.

Each compound was assayed against DNA polymerase eta (Homo sapiens) (UniProt Q9Y253) (assay: qHTS for Inhibitors of Polymerase Eta). Conditions: recombinant Pol eta, fluorescent DNA replication assay; series mostly up to 114 µM; activity change, negative = inhibition: at the top concentration.
UniProt Q9Y253, sequence (Q9Y253 whole entry, looked up): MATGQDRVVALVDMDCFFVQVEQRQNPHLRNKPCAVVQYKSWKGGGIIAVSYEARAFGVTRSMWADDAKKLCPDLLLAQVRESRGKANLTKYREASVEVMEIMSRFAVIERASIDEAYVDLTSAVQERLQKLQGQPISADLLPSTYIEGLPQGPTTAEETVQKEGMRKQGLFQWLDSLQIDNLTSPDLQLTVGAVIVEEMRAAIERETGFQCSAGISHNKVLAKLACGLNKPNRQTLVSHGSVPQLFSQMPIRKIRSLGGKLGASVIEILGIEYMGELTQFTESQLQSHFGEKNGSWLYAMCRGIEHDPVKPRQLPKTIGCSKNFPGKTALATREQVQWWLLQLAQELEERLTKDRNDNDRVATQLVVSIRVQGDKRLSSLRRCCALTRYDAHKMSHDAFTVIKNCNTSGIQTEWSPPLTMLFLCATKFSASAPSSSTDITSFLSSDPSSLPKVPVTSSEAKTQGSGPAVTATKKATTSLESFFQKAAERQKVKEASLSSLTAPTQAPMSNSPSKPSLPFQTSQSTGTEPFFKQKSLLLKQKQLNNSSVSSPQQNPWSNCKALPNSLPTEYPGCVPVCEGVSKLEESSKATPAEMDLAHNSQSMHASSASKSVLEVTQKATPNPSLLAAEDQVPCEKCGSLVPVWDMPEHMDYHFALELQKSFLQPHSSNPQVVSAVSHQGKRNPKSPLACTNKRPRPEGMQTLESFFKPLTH
How it was run: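 Pol eta at 10 nM preincubated with compounds 15 min at room temperature; reaction started with fluorescent substrate (50 nM final) and read kinetically at 0 and 10 min.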
In the case of `CN(C)c1ccc(C=C(C#N)C#N)cc1`, the “activity change, negative = inhibition” value is reported as inactive: -7.35%.
In the case of `Cc1cccc(N2C(=O)NC(=O)/C(=C/c3ccc([N+](=O)[O-])o3)C2=O)c1`, the Potency is reported as active: 2.51 µM.
`CNC(=O)Oc1c(C)[nH]ccc1=O` was tested, and the Potency was inconclusive: 89.1 µM [inhibitor, single point].
In the case of `O=C(c1ccco1)N1CCN(C(=O)c2ccc(COc3ccc(Cl)cc3Cl)o2)CC1`, the Potency is reported as inconclusive: 20 µM [inhibitor, full curve].
For `O=C(N/N=C/c1c(O)n(Cc2ccco2)c(=O)[nH]c1=O)c1ccccc1`, the Potency was inconclusive: 15.8 µM [inhibitor, partial curve, poor fit].
In the case of `O=C1NC(=S)NC(=O)C1=Cc1cccc2cc3ccccc3cc12`, the Potency is reported as active: 50.1 µM.
With `Cc1ccc(N2C(=O)NC(=O)/C(=C\C=C\c3ccco3)C2=O)cc1C` the Potency was active: 22.4 µM.
In the case of `COc1ccc(/C=C2/C(=O)NC(=O)N(c3ccccc3)C2=O)cc1CN1C(=O)c2ccccc2C1=O`, the “activity change, negative = inhibition” value is reported as inactive: -4.28%.
`Cc1ccccc1N1C(=O)NC(=O)/C(=C\c2cnn(-c3ccccc3)c2)C1=O` was tested, and the Potency was active: 22.4 µM.
For `Cc1ccc(N2C(=O)NC(=O)/C(=C/c3ccc(-c4ccc(C(=O)O)c(Cl)c4)o3)C2=O)cc1`, the Potency was active: 8.91 µM.
For `Oc1cccc(Nc2ncnc3sc4c(c23)CCCC4)c1`, the Potency was inconclusive: 89.1 µM [inhibitor, partial curve, poor fit].
With `COc1ccc(Cn2c(N)c(C(=O)NCc3ccco3)c3nc4ccccc4nc32)cc1` the Potency was inconclusive: 14.1 µM [inhibitor, full curve, poor fit].
In the case of `Cc1cc(C)cc(N2C(=O)NC(=O)/C(=C\c3cccn3-c3ccc(Cl)cc3)C2=O)c1`, the Potency is reported as active: 22.4 µM.
`COc1cc(/C=C2/SC(=S)N(Cc3ccccc3)C2=O)ccc1OCC(=O)O` was tested, and the Potency was inconclusive: 17.8 µM [inhibitor, full curve, poor fit].
In the case of `Cc1cc(/C=C2\C(=O)NC(=O)N(C)C2=O)c(C)n1-c1ccc2c(c1)OCO2`, the Potency is reported as inconclusive: 15.8 µM [inhibitor, full curve, poor fit].
In the case of `CC(C)CCNC(=O)Cn1c(=O)oc2cc(S(=O)(=O)N3CCc4ccccc43)ccc21`, the Potency is reported as inconclusive: 79.4 µM [inhibitor, partial curve, poor fit].
With `O=C1NC(=O)C(=Cc2ccc(-c3ccc(Cl)cc3)o2)C(=O)N1` the Potency was active: 79.4 µM.
With `O=C(Nc1ccccc1)c1c(O)[nH]c(=O)[nH]c1=O` the “activity change, negative = inhibition” value was inactive: 0.0572%.
For `COc1cc(C2c3cc4c(cc3CC3COC(=O)C32)OCO4)cc(OC)c1O` (centres undefined), the Potency was inconclusive: 20 µM [inhibitor, single point].
In the case of `O=C1C=CC(=O)C2C1C1(Cl)C(Cl)=C(Cl)C2(Cl)C1(Cl)Cl` (centres undefined), the Potency is reported as inconclusive: 112 µM [inhibitor, partial curve, poor fit].
For `C=CCn1c(O)c(N=Nc2c(C)n(C)n(-c3ccccc3)c2=O)c(=O)[nH]c1=S`, the Potency was inconclusive: 3.55 µM [inhibitor, partial curve, poor fit].
In the case of `C=C1C(=O)OC2CC3(C)OC3CCC(C)=CC(OC(C)=O)C12` (centres undefined), the “activity change, negative = inhibition” value is reported as inactive: -13.6%.
For `O=C1NC(=S)SC1=Cc1ccc(N(CCCl)CCCl)cc1`, the Potency was active: 79.4 µM.
`Cc1cc(/C=C2\C(=O)NC(=O)N(c3cccc(Br)c3)C2=O)c(C)n1C` was tested, and the Potency was inconclusive: 39.8 µM [inhibitor, partial curve, poor fit].
`COc1cc(/C=C/c2nc3ccccc3c(=O)n2-c2cccc(O)c2)ccc1O` was tested, and the Potency was inconclusive: 56.2 µM [inhibitor, partial curve, poor fit].
For `Cc1ccccc1-n1c(C)cc(/C=C2/C(=O)NC(=O)N(Cc3ccco3)C2=O)c1C`, the Potency was inconclusive: 35.5 µM [inhibitor, full curve].
`CCOc1cc(CNC(C)C(O)c2ccccc2)cc(Cl)c1OCC` (centres undefined) was tested, and the Potency was inconclusive: 100 µM [inhibitor, partial curve, poor fit].
`COc1ccc2[nH]c3c(c2c1)CCN=C3C` was tested, and the “activity change, negative = inhibition” value was inactive: -7.95%.
For `O=c1[nH]c(=O)n(Cc2ccco2)c(O)c1C=NCCCn1ccnc1`, the Potency was inconclusive: 22.4 µM [inhibitor, partial curve, poor fit].
For `Oc1ccc(/C=N/NP(=S)(c2ccccc2)c2ccccc2)c(O)c1O`, the Potency was inconclusive: 28.2 µM [inhibitor, partial curve, poor fit].
`CCc1ccc(-n2nc(C)c3c(C(=O)NCCc4ccc(OC)c(OC)c4)cc(C)nc32)cc1` was tested, and the Potency was inconclusive: 35.5 µM [inhibitor, partial curve, poor fit].
With `O=[N+]([O-])c1ccc2c(c1)Cc1cc(O)ccc1-2` the Potency was inconclusive: 12.6 µM [inhibitor, full curve, poor fit].
For `Cc1ccc(Cl)cc1Nc1nn2c(=O)c3ccc(C(=O)NCc4cccs4)cc3nc2s1`, the Potency was inconclusive: 44.7 µM [inhibitor, partial curve, poor fit].
For `CCn1nc(/C=C/c2ccccc2)nc2c(=O)n(C)c(=O)nc1-2`, the Potency was active: 0.794 µM.
In the case of `Cc1nc2ccc(Nc3nc4cc(S(=O)(=O)N5CCOCC5)ccc4o3)cc2s1`, the Potency is reported as inconclusive: 25.1 µM [inhibitor, partial curve, poor fit].
In the case of `COC(=O)c1nc(-c2ccc3c(n2)C(=O)C(N)=C(OC)C3=O)c(N)c(-c2ccc(OC)c(OC)c2O)c1C`, the Potency is reported as active: 10 µM.
With `C[n+]1c2cc(N)ccc2cc2ccc(N)cc21` the Potency was active: 35.5 µM and active: 44.7 µM.
With `CC(CC(C)(C)N1CC1)=NO` the Potency was inconclusive: 20 µM [inhibitor, partial curve, poor fit].
`O=c1[nH]c(=O)n(C2CCCCC2)c(O)c1/C=N/N1CCCCC1c1cccnc1` (centres undefined) was tested, and the Potency was inconclusive: 89.1 µM [inhibitor, partial curve, poor fit].
For `O=C1NC(=O)N(c2ccccc2)C(=O)/C1=C/c1ccc(Sc2ccccc2)o1`, the Potency was inconclusive: 89.1 µM [inhibitor, single point].
`O=C(COc1ccc(Cl)cc1)N1CCN(C/C=C/c2ccccc2)CC1` was tested, and the Potency was inconclusive: 89.1 µM [inhibitor, partial curve, poor fit].
With `CC/C(=N\NC(=O)c1ccccc1O)c1c(O)n(C2CCCCC2)c(=O)[nH]c1=O` the “activity change, negative = inhibition” value was inactive: -13.1%.
For `COc1ccc(N2C(=O)/C(=C/c3ccco3)C(=O)NC2=S)cc1`, the Potency was active: 1.12 µM.
With `CCOc1ccc(N2C(=O)/C(=C/c3ccco3)C(=O)NC2=S)cc1` the “activity change, negative = inhibition” value was inactive: -101%.
For `Nc1ccccc1C(=O)OC1CSC1`, the Potency was inconclusive: 89.1 µM [inhibitor, partial curve].
In the case of `CCn1c(O)c(C=Nc2ccc(S(N)(=O)=O)cc2)c(=O)[nH]c1=S`, the Potency is reported as inconclusive: 35.5 µM [inhibitor, partial curve, poor fit].
In the case of `O=c1cc(-c2ccc(O)cc2)oc2c(C3O[C@H](CO)[C@@H](O)[C@H](O)[C@H]3O)c(O)cc(O)c12` (some centres undefined), the Potency is reported as inconclusive: 89.1 µM [inhibitor, single point].
With `Cc1ccc(-n2c(O)c(C=NCc3ccco3)c(=O)[nH]c2=S)cc1C` the Potency was inconclusive: 56.2 µM [inhibitor, partial curve, poor fit].
`CCOC(=O)c1c(-n2c(C)cc(C=C3C(=O)NC(=S)NC3=O)c2C)sc2c1CCCC2` was tested, and the Potency was active: 28.2 µM.
With `O=C1NC(=O)N(Cc2ccc(F)cc2)C(=O)/C1=C\c1ccoc1` the Potency was active: 22.4 µM.
In the case of `Cc1ccc(N2C(=O)NC(=O)C3(Cc4ccccc4N4CCCC43)C2=O)cc1` (centres undefined), the Potency is reported as inconclusive: 25.1 µM [inhibitor, partial curve, poor fit].
With `CCOc1ccc(NC(=O)c2c(C)nn(Cc3ccccc3)c2Cl)cc1` the “activity change, negative = inhibition” value was inactive: -16.5%.
`O=C(c1ccc2nc(-c3ccco3)c(-c3ccco3)nc2c1)N1CCC2(CC1)OCCO2` was tested, and the Potency was active: 15.8 µM.
For `COc1cccc(N2C(=O)/C(=C/c3ccc(C)o3)C(=O)NC2=S)c1`, the Potency was active: 12.6 µM.
In the case of `O=C1NC(=O)C(=Cc2ccc(-c3cc(Cl)ccc3[N+](=O)[O-])o2)C(=O)N1`, the Potency is reported as inconclusive: 56.2 µM [inhibitor, partial curve, poor fit].
`C[C@H]1CC2C3CC=C4C[C@@H](O)CC[C@]4(C)C3CC[C@]2(C)[C@H]1O` (some centres undefined) was tested, and the Potency was inconclusive: 100 µM [inhibitor, partial curve, poor fit].
With `O=C1NC(=O)N(c2ccc(Cl)cc2)C(=O)/C1=C\c1ccc(Sc2nc3ccccc3[nH]2)o1` the Potency was active: 17.8 µM.
With `NCCc1cc(O)c(O)cc1O` the Potency was active: 39.8 µM and active: 56.2 µM.
In the case of `CC(C)(C)c1ccc(C(=O)C2CCCN(C3CCC3)C2)cc1` (centres undefined), the “activity change, negative = inhibition” value is reported as inactive: -18.1%.
In the case of `C[C@]12Cc3cn4c(nc3C=C1CCC1C2CC[C@@]2(C)[C@H]1CC[C@@]2(O)C#N)nc1ccccc14` (some centres undefined), the Potency is reported as inconclusive: 14.1 µM [inhibitor, partial curve, poor fit].
For `Cc1c(C(=O)O)cccc1-n1c(C)cc(/C=C2\C(=O)NC(=O)N(c3ccc4c(c3)OCO4)C2=O)c1C`, the Potency was active: 5.01 µM.
`CCN(CC)C(=O)c1ccc(NC(=O)c2cccc(S(=O)(=O)N3CCN(Cc4ccccc4)CC3)c2)cc1` was tested, and the “activity change, negative = inhibition” value was inactive: -17.8%.
`O=C(N/N=C/c1c(O)n(Cc2ccco2)c(=O)[nH]c1=O)c1ccccc1O` was tested, and the Potency was active: 14.1 µM.
For `CCC(C)C1NC(=O)C(NC(=O)C(CC(C)C)N(C)C(=O)C2CCCN2C(=O)C(C)O)C(C)OC(=O)C(Cc2ccc(OC)cc2)N(C)C(=O)C2CCCN2C(=O)C(CC(C)C)NC(=O)[C@H](C)C(=O)[C@H](C(C)C)OC(=O)CC1O` (some centres undefined), the Potency was inconclusive: 50.1 µM [inhibitor, partial curve, poor fit].
